Assay results as given in the supplement of paper PMC7125110.
This sample is rich in variants without activity.

B1: glmS ribozyme (parent)
chain: AUAAAAGCGCCAGAACUACAGAAAUGUAGUUGACGAGGAGGAGGUUUAUCGAAUUUUCGGCGGAUGCCUCCAAA

Columns and labels:
Conditions in all cases: with glucosamine-6-phosphate
[1] = variants of: B1; test: kcat; higher = faster cleavage; RNA array
Procedure, shortened: (§1)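 kcat and KM were obtained from weighted Michaelis–Menten fits across concentrations of kobs values. Those came from one- or two-exponential decay fits to per-tile medians normalised to baseline and to non-cleaving reference variants. The variants were barcoded ribozymes transcribed in situ by E. coli RNA polymerase on sequenced MiSeq chips and tracked through a hybridised Cy3 probe at 37 °C, with 40 μM to 10 mM glucosamine-6-phosphate in HEPES/KCl/Mg(OAc)2 buffer flowed in.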

[2] = variants of: B1; test: self-cleavage kobs at 40 uM GlcN6P; higher = faster cleavage; RNA array
Procedure, shortened: as §1

[3] = variants of: B1; test: self-cleavage kobs at 160 uM GlcN6P; higher = faster cleavage; RNA array
Procedure, shortened: as §1

[4] = variants of: B1; test: self-cleavage kobs at 2500 uM GlcN6P; higher = faster cleavage; RNA array
Procedure, shortened: as §1

[5] = variants of: B1; test: self-cleavage kobs at 10000 uM GlcN6P; higher = faster cleavage; RNA array
Procedure, shortened: as §1

[6] = variants of: B1; test: self-cleavage kobs at 640 uM GlcN6P; higher = faster cleavage; RNA array
Procedure, shortened: as §1

Variant: U47G G63A
- kcat [1]: < 1e-05 s⁻¹
- self-cleavage kobs at 40 uM GlcN6P [2]: < 1e-05 s⁻¹
- self-cleavage kobs at 160 uM GlcN6P [3]: < 1e-05 s⁻¹
- self-cleavage kobs at 2500 uM GlcN6P [4]: < 1e-05 s⁻¹
- self-cleavage kobs at 10000 uM GlcN6P [5]: < 1e-05 s⁻¹

Variant: C61G
- kcat [1]: < 1e-05 s⁻¹
- self-cleavage kobs at 40 uM GlcN6P [2]: < 1e-05 s⁻¹
- self-cleavage kobs at 160 uM GlcN6P [3]: < 1e-05 s⁻¹
- self-cleavage kobs at 10000 uM GlcN6P [5]: < 1e-05 s⁻¹

Variant: A33G G62U
- kcat [1]: < 1e-05 s⁻¹
- self-cleavage kobs at 2500 uM GlcN6P [4]: < 1e-05 s⁻¹
- self-cleavage kobs at 10000 uM GlcN6P [5]: < 1e-05 s⁻¹

Variant: A6G C16G C67A
- self-cleavage kobs at 40 uM GlcN6P [2]: < 1e-05 s⁻¹

Variant: A6G C50A C70U
- self-cleavage kobs at 40 uM GlcN6P [2]: < 1e-05 s⁻¹

Variant: A6C C10A G40A G66U
- self-cleavage kobs at 40 uM GlcN6P [2]: < 1e-05 s⁻¹
- self-cleavage kobs at 10000 uM GlcN6P [5]: < 1e-05 s⁻¹

Variant: G9C G63U
- kcat [1]: < 1e-05 s⁻¹
- self-cleavage kobs at 40 uM GlcN6P [2]: < 1e-05 s⁻¹

Variant: C58U G63C
- kcat [1]: < 1e-05 s⁻¹
- self-cleavage kobs at 160 uM GlcN6P [3]: < 1e-05 s⁻¹
- self-cleavage kobs at 10000 uM GlcN6P [5]: < 1e-05 s⁻¹

Variant: A36C C68U
- kcat [1]: < 1e-05 s⁻¹

Variant: A6G C10A C58G
- self-cleavage kobs at 40 uM GlcN6P [2]: < 1e-05 s⁻¹

Variant: C11G C50A
- kcat [1]: < 1e-05 s⁻¹
- self-cleavage kobs at 40 uM GlcN6P [2]: < 1e-05 s⁻¹
- self-cleavage kobs at 10000 uM GlcN6P [5]: < 1e-05 s⁻¹

Variant: G51A G66U
- kcat [1]: < 1e-05 s⁻¹
- self-cleavage kobs at 640 uM GlcN6P [6]: < 1e-05 s⁻¹

Variant: A6U A36G A64U
- self-cleavage kobs at 40 uM GlcN6P [2]: < 1e-05 s⁻¹
- self-cleavage kobs at 640 uM GlcN6P [6]: < 1e-05 s⁻¹
- self-cleavage kobs at 160 uM GlcN6P [3]: < 1e-05 s⁻¹
- self-cleavage kobs at 2500 uM GlcN6P [4]: < 1e-05 s⁻¹
- self-cleavage kobs at 10000 uM GlcN6P [5]: < 1e-05 s⁻¹

Variant: G35U U54G U56A
- kcat [1]: < 1e-05 s⁻¹
- self-cleavage kobs at 40 uM GlcN6P [2]: < 1e-05 s⁻¹

Variant: G7A C8U U49G G62C
- kcat [1]: < 1e-05 s⁻¹
- self-cleavage kobs at 40 uM GlcN6P [2]: < 1e-05 s⁻¹
- self-cleavage kobs at 2500 uM GlcN6P [4]: < 1e-05 s⁻¹

Variant: U65C C67U C70A
- kcat [1]: < 1e-05 s⁻¹
- self-cleavage kobs at 40 uM GlcN6P [2]: < 1e-05 s⁻¹

Variant: C16A G51U
- kcat [1]: < 1e-05 s⁻¹
- self-cleavage kobs at 40 uM GlcN6P [2]: < 1e-05 s⁻¹
- self-cleavage kobs at 10000 uM GlcN6P [5]: < 1e-05 s⁻¹

Variant: G44U C71A
- kcat [1]: < 1e-05 s⁻¹
- self-cleavage kobs at 40 uM GlcN6P [2]: < 1e-05 s⁻¹
- self-cleavage kobs at 640 uM GlcN6P [6]: < 1e-05 s⁻¹
- self-cleavage kobs at 160 uM GlcN6P [3]: < 1e-05 s⁻¹

Variant: C34U C61U
- kcat [1]: < 1e-05 s⁻¹
- self-cleavage kobs at 40 uM GlcN6P [2]: < 1e-05 s⁻¹
- self-cleavage kobs at 640 uM GlcN6P [6]: < 1e-05 s⁻¹
- self-cleavage kobs at 160 uM GlcN6P [3]: < 1e-05 s⁻¹
- self-cleavage kobs at 2500 uM GlcN6P [4]: < 1e-05 s⁻¹
- self-cleavage kobs at 10000 uM GlcN6P [5]: < 1e-05 s⁻¹

Variant: C34U C61A
- kcat [1]: < 1e-05 s⁻¹
- self-cleavage kobs at 160 uM GlcN6P [3]: < 1e-05 s⁻¹

Variant: U49G C58U
- kcat [1]: < 1e-05 s⁻¹

Variant: A6C U56A
- self-cleavage kobs at 40 uM GlcN6P [2]: < 1e-05 s⁻¹
- self-cleavage kobs at 160 uM GlcN6P [3]: < 1e-05 s⁻¹

Variant: G29C U55C U69G
- kcat [1]: < 1e-05 s⁻¹

Variant: A6U A15G U30C
- self-cleavage kobs at 40 uM GlcN6P [2]: < 1e-05 s⁻¹

Variant: A6C C10A U49A G59C
- self-cleavage kobs at 40 uM GlcN6P [2]: < 1e-05 s⁻¹

Variant: G37U U49A
- kcat [1]: < 1e-05 s⁻¹
- self-cleavage kobs at 640 uM GlcN6P [6]: < 1e-05 s⁻¹
- self-cleavage kobs at 10000 uM GlcN6P [5]: < 1e-05 s⁻¹

Variant: A6G G7U A12C A42C
- self-cleavage kobs at 40 uM GlcN6P [2]: < 1e-05 s⁻¹

Variant: G13U C61G
- kcat [1]: < 1e-05 s⁻¹
- self-cleavage kobs at 10000 uM GlcN6P [5]: < 1e-05 s⁻¹

Variant: U2A A3U G9U A14U A52G U57C
- self-cleavage kobs at 40 uM GlcN6P [2]: < 1e-05 s⁻¹
- self-cleavage kobs at 10000 uM GlcN6P [5]: < 1e-05 s⁻¹

Variant: A6C C58U
- self-cleavage kobs at 40 uM GlcN6P [2]: < 1e-05 s⁻¹
- self-cleavage kobs at 160 uM GlcN6P [3]: < 1e-05 s⁻¹
- self-cleavage kobs at 10000 uM GlcN6P [5]: < 1e-05 s⁻¹

Variant: G32C G40U
- kcat [1]: < 1e-05 s⁻¹

Variant: A6C G43A
- self-cleavage kobs at 40 uM GlcN6P [2]: < 1e-05 s⁻¹
- self-cleavage kobs at 640 uM GlcN6P [6]: < 1e-05 s⁻¹
- self-cleavage kobs at 160 uM GlcN6P [3]: < 1e-05 s⁻¹
- self-cleavage kobs at 10000 uM GlcN6P [5]: < 1e-05 s⁻¹

Variant: A6G G32C U47A A53G
- self-cleavage kobs at 40 uM GlcN6P [2]: < 1e-05 s⁻¹
- self-cleavage kobs at 10000 uM GlcN6P [5]: < 1e-05 s⁻¹

Variant: G37U U56G
- kcat [1]: < 1e-05 s⁻¹
- self-cleavage kobs at 40 uM GlcN6P [2]: < 1e-05 s⁻¹

Variant: G38U U56G C71G
- kcat [1]: < 1e-05 s⁻¹
- self-cleavage kobs at 640 uM GlcN6P [6]: < 1e-05 s⁻¹

Variant: G59A G66U
- kcat [1]: < 1e-05 s⁻¹

Variant: A6G C10U
- self-cleavage kobs at 40 uM GlcN6P [2]: < 1e-05 s⁻¹
- self-cleavage kobs at 640 uM GlcN6P [6]: < 1e-05 s⁻¹
- self-cleavage kobs at 10000 uM GlcN6P [5]: < 1e-05 s⁻¹

Variant: G51U C58A
- kcat [1]: < 1e-05 s⁻¹
- self-cleavage kobs at 640 uM GlcN6P [6]: < 1e-05 s⁻¹

Variant: C11G G35A
- kcat [1]: < 1e-05 s⁻¹
- self-cleavage kobs at 640 uM GlcN6P [6]: < 1e-05 s⁻¹

Variant: G29U G38C
- kcat [1]: < 1e-05 s⁻¹
- self-cleavage kobs at 640 uM GlcN6P [6]: < 1e-05 s⁻¹

Variant: A36U A52C
- kcat [1]: < 1e-05 s⁻¹
- self-cleavage kobs at 40 uM GlcN6P [2]: < 1e-05 s⁻¹
- self-cleavage kobs at 160 uM GlcN6P [3]: < 1e-05 s⁻¹

Variant: C11G U54G
- kcat [1]: < 1e-05 s⁻¹

Variant: A33C U57C
- kcat [1]: < 1e-05 s⁻¹
- self-cleavage kobs at 40 uM GlcN6P [2]: < 1e-05 s⁻¹

Variant: A14G G60U
- kcat [1]: < 1e-05 s⁻¹
- self-cleavage kobs at 40 uM GlcN6P [2]: < 1e-05 s⁻¹
- self-cleavage kobs at 160 uM GlcN6P [3]: < 1e-05 s⁻¹

Variant: A6G A15C U31G A64G C70U
- self-cleavage kobs at 40 uM GlcN6P [2]: < 1e-05 s⁻¹
- self-cleavage kobs at 10000 uM GlcN6P [5]: < 1e-05 s⁻¹

Variant: A6C U30C
- self-cleavage kobs at 40 uM GlcN6P [2]: < 1e-05 s⁻¹
- self-cleavage kobs at 640 uM GlcN6P [6]: < 1e-05 s⁻¹
- self-cleavage kobs at 160 uM GlcN6P [3]: < 1e-05 s⁻¹
- self-cleavage kobs at 2500 uM GlcN6P [4]: < 1e-05 s⁻¹

Variant: A6C G44U G51A
- self-cleavage kobs at 40 uM GlcN6P [2]: < 1e-05 s⁻¹
- self-cleavage kobs at 10000 uM GlcN6P [5]: < 1e-05 s⁻¹

Variant: A6G A33U U46A
- self-cleavage kobs at 40 uM GlcN6P [2]: < 1e-05 s⁻¹

Variant: A6G A14C A48U C50U U55G C68A
- self-cleavage kobs at 40 uM GlcN6P [2]: < 1e-05 s⁻¹
- self-cleavage kobs at 640 uM GlcN6P [6]: < 1e-05 s⁻¹
- self-cleavage kobs at 160 uM GlcN6P [3]: < 1e-05 s⁻¹
- self-cleavage kobs at 2500 uM GlcN6P [4]: < 1e-05 s⁻¹
- self-cleavage kobs at 10000 uM GlcN6P [5]: < 1e-05 s⁻¹

Variant: G59U A64C
- kcat [1]: < 1e-05 s⁻¹
- self-cleavage kobs at 40 uM GlcN6P [2]: < 1e-05 s⁻¹
- self-cleavage kobs at 2500 uM GlcN6P [4]: < 1e-05 s⁻¹
- self-cleavage kobs at 10000 uM GlcN6P [5]: < 1e-05 s⁻¹

Variant: A15C G51U
- kcat [1]: < 1e-05 s⁻¹
- self-cleavage kobs at 2500 uM GlcN6P [4]: < 1e-05 s⁻¹

Variant: G32C U47C G62C C71U
- kcat [1]: < 1e-05 s⁻¹
- self-cleavage kobs at 40 uM GlcN6P [2]: < 1e-05 s⁻¹
